Reference: patent US10941114B2, “Small molecule lipid II inhibitors” (University Of Maryland, Baltimore, priority 2015, dated 2021)
Counter-ions that a name gives are not always drawn. At least one structure is not confirmed: it was looked up by name or label, or the drawing left a doubt. Some compounds share one wording; it may come from a single statement.

Experiment: Surface Plasmon Resonance determination of Lipid II binding
Conditions: SPR, immobilized 3-LII, compounds at 10 μM
Method: Short-chain water-soluble LII containing a lipid tail of three isoprene units (3-LII) was generated and purified essentially according to methods known in the art. See Breukink et al., Lipid II is an intrinsic component of the pore induced by nisin in bacterial membranes. J. Biol. Chem. 278(22):19898-19903, 2003, the contents of which are hereby incorporated by reference. Typically, M. flavus vesicles (120 μmol lipid-Pi) were incubated together with 500 μmol UDP-GlcNAc, 500 μmol UDP-MurNAC-pentapeptide and 400 μmol farnesyl phosphate in 100 mM Tris-HCl pH 8.0, 5 mM MgCl2. The incubation period was approximately two hours at room temperature for 3-LII (3-P). The synthesis of 3-Lipid II was followed by RP-8 reversed phase TLC (Merck™) developed with 75% methanol. For purification, the membranes were removed by centrifugation at 40,000×g; the supernatant was collected and loaded on a C18 HPLC column and eluted with a linear gradient from 50 mM ammonium bicarbonate to 100% methanol in 30 minutes. Farnesyl-Lipid II (3-Lipid II) eluted at approximately 60% methanol. Its identity was confirmed by mass spectroscopy.
Surface Plasmon Resonance binding experiments were carried out on a BIAcore T100 system (BIAcore™ Inc., Piscataway, N.Y.) at 25° C. The assay buffer was 10 mM HEPES, 150 mM NaCl, 0.05% surfactant P20, pH 7.4 (+3 mM EDTA) supplemented with 10% DMSO. 3-Lipid II (50 RUs) was immobilized on CMS sensor chips using the amine-coupling chemistry recommended by the manufacturer. For initial determination of binding, compounds were introduced into the flow-cells (30.mu·1/min) in the running buffer at 10 μM. Resonance signals were corrected for nonspecific binding by subtracting the background of the control flow-cell. Binding to immobilized 3-LII on the chip surface was determined and scored “yes” in Table 5 when more than 20 Resonance Units or RUs were detected. Detection of less than 20 RUs was scored as “no”, meaning no significant binding to LII. After each analysis, the sensor chip surfaces were regenerated with 50 mM NaOH for 30 seconds at a flow rate 100 μL/min, and equilibrated with the buffer prior to next injection. For binding kinetics studies, binding isotherms were analyzed with manufacturer-supplied software for BIAcore™ T100.

Row | Structure (SMILES) | Lipid II Binding
1 | Brc1ccc(-c2cc(/C=C/c3cc4c5c(c3)CCCN5CCC4)[o+]c(-c3ccc(Br)cc3)c2)cc1 [(E)-2,4-bis(4~ bromophenyl)-6-(2-(1,2,3,5,6,7-hexahydropyrido [3,2,1-ij]quinolin-9-yl)vinyl)pyrylium boron tetrafluoride salt] | yes (scored “yes” in Table 5 when more than 20 Resonance Units or RUs were detected)
2 | Clc1ccc(-c2cc(/C=C/c3cc4c5c(c3)CCCN5CCC4)[o+]c(-c3ccc(Cl)cc3)c2)cc1 [(E)-2,4-bis(4-chlorophenyl)-6-(2-(1,2,3,5,6,7-hexahydropyrido [3,2,1-ij]quinolin-9-yl)vinyl)pyrylium boron tetrafluoride salt] | yes (scored “yes” in Table 5 when more than 20 Resonance Units or RUs were detected)
3 | CN1/C(=C/C=C/c2cc(-c3ccccc3)cc(-c3ccccc3)[o+]2)C(C)(C)c2ccccc21 [drawing 116, 2,4-diphenyl~6-((1E,3E)-3-(1,3,3-trimethylindolin-2-ylidene)prop-1-en-1-yl)pyrylium boron tetrafluoride salt] | yes (scored “yes” in Table 5 when more than 20 Resonance Units or RUs were detected)
4 | CC(C)(C)c1ccc(-c2cc(/C=C/c3cc4c5c(c3)CCCN5CCC4)[o+]c(-c3ccc(C(C)(C)C)cc3)c2)cc1 [(E)-2,4-bis(4-(tert-butyl)phenyl)-6-(2-(1,2,3,5,6,7-hexahydropyrido [3,2,1-ij]quinolin-9-yl)vinyl)pyrylium boron tetrafluoride salt] | yes (scored “yes” in Table 5 when more than 20 Resonance Units or RUs were detected)
5 | CCc1ccc(-c2cc(/C=C/C=C/c3ccc(N(C)C)cc3)[o+]c(-c3ccc(CC)cc3)c2)cc1 [2-((1E,3E)-4-(4-(dimethylamino)phenyl)buta-1,3-dien-1-yl)-4,6-bis(4-ethylphenyl) pyrylium boron tetrafluoride salt] | yes (scored “yes” in Table 5 when more than 20 Resonance Units or RUs were detected)
6 | CCc1ccc(-c2cc(/C=C/c3cn(C)c4ccccc34)[o+]c(-c3ccc(CC)cc3)c2)cc1 [(E)-2.4-bis(4-ethylphenyl)-6-(2-(1-methyl-1H-indol-3-yl)vinyl)pyrylium boron tetrafiuoride salt] | yes (scored “yes” in Table 5 when more than 20 Resonance Units or RUs were detected)
7 | CN(C)c1ccc(/C=C/C=C/c2cc(-c3ccc(C(C)(C)C)cc3)cc(-c3ccc(C(C)(C)C)cc3)[o+]2)cc1 [2,4-bis(4-(tert-butyl)phenyl)-6-((1E,3E)-4-(4-(dimethylamino)phenyl)buta-1,3-dien-1-yl)pyrylium boron tetrafluoride salt] | yes (scored “yes” in Table 5 when more than 20 Resonance Units or RUs were detected)
8 | Cc1cc(C)[o+]c(C)c1 [2,4,6-trimethylpyrylium boron tetrafluoride salt] | no (Detection of less than 20 RUs was scored as “no”, meaning no significant binding to LII)
9 | CN(C)c1ccc(/C=C/C=C/c2cc(-c3ccc(Br)cc3)cc(-c3ccc(Br)cc3)[o+]2)cc1 [2,4-bis(4-bromophenyi)-6-((1E,3E)-4-(4-(dimetliylamino)phenyl)buta-1,3-dien-1-yl)pyrylium boron tetrafluoride salt] | yes (scored “yes” in Table 5 when more than 20 Resonance Units or RUs were detected)
10 | C(=C\c1cc(-c2ccccc2)cc(-c2ccccc2)[o+]1)/c1cc2c3c(c1)CCCN3CCC2 [(E)-2-(2-(1,2,3,5,6,7-hexahydropyrido [3,2,1-ij]quinolin-9-yl)vinyl)-4,6-diphenylpyrylium boron tetrafluoride salt] | yes (scored “yes” in Table 5 when more than 20 Resonance Units or RUs were detected)
11 | Cn1cc(/C=C/c2cc(-c3ccc(C(C)(C)C)cc3)cc(-c3ccc(C(C)(C)C)cc3)[o+]2)c2ccccc21 [(E)-2,4-bis(4-(tert-butyl)phenyl)-6-(2-(1-methyl-1H-indol-3-yl)vinyl)pyrylium boron tetrafluoride salt] | yes (scored “yes” in Table 5 when more than 20 Resonance Units or RUs were detected)
